Reference: PubChem BioAssay AID360 (National Center for Advancing Translational Sciences (NCATS), 2006)
The campaign covered roughly 48,000 compounds. About 550 (1.1%) were called active. Not shown: some 4% with an inconclusive outcome. No stated cut-off is given here; in the data, active means potency below about 15 µM; inconclusive means mostly about 16 µM to 33 µM; inactive means weaker than that. The list shows a part of the results.

target: Lysosomal acid glucosylceramidase (Homo sapiens) (UniProt P04062); experiment: Glucocerebrosidase; details: purified enzyme, resorufin glucoside fluorescence (screen aimed at inhibitors), 20 min;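 further: the screen sought inhibitors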
Outline: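 Compounds titrated against 0.2 nM normal enzyme, 30 uM resorufin beta-D-glucopyranoside substrate, citrate/phosphate buffer with taurocholate and tween-20, pH 5.9. Reaction ran 20 min at room temperature; fluorescence (Ex 548/Em 600) gave AC50.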
Potency means the concentration at half of the fitted maximal effect.

Chain of UniProt P04062 (P04062 whole entry, looked up): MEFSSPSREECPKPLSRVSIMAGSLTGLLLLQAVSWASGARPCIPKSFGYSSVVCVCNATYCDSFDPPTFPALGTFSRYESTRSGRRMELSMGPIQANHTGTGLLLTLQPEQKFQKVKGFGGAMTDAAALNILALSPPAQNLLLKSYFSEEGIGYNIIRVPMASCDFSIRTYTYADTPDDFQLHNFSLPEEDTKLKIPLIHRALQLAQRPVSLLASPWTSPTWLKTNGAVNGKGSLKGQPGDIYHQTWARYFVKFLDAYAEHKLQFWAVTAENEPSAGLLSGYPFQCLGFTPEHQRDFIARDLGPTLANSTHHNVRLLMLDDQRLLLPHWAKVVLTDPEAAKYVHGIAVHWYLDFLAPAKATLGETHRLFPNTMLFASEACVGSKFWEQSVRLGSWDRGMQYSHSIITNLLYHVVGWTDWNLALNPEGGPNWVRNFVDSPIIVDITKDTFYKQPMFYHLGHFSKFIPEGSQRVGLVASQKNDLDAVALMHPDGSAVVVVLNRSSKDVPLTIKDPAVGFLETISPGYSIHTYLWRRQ

Potency, inactive:
Cc1ccc(S(=O)(=O)c2nc(C(C)(C)C)oc2N2CCOCC2)cc1 > 76.9 µM
O=CNCCCc1nc2ccccc2n1Cc1ccccc1 > 76.9 µM
COc1ccccc1NC(=O)Nc1ccc(Br)cn1 > 76.9 µM
CCn1c(SCc2nc3ccccc3c(=O)[nH]2)nnc1-c1cccnc1 > 76.9 µM
COc1cccc(C(=O)Cn2c(N3CCCCC3)nc3c2c(=O)n(C)c(=O)n3C)c1 > 76.9 µM
c1cnc2c(OCc3nc4ccccc4[nH]3)cccc2c1 > 76.9 µM
O=C(Nc1nc2ccccc2n1CCN1CCCCC1)c1ccco1 > 76.9 µM
Cc1ccc(C)c(N2CCN(C(=O)C3CCN(S(=O)(=O)c4cccc5nsnc45)CC3)CC2)c1 > 76.9 µM
COc1ccc(-c2csc(N3CCOCC3)n2)cc1OC > 76.9 µM
CCC(=O)N1CCc2cc(Br)cc(S(=O)(=O)NCCN3CCOCC3)c21 > 76.9 µM
COc1ccc(Cl)cc1S(=O)(=O)Nc1cccc(C(=O)O)c1 > 76.9 µM
CCOC(=O)CSc1nnc([C@H](CC(C)C)NC(=O)OC(C)(C)C)o1 > 76.9 µM
CCOc1ccccc1NC(=O)c1ccccc1-c1nc(-c2ccccc2OC)no1 > 76.9 µM
CCc1c(C)c(C#N)c2nc3ccccc3n2c1Nc1c(C)n(C)n(-c2ccccc2)c1=O > 76.9 µM
CCNS(=O)(=O)c1ccc(NC(=O)Cc2ccc(F)cc2)cc1 > 76.9 µM
Nc1nc(SCc2ccccc2)[nH]c(=O)c1-c1ccccc1 > 76.9 µM
Cc1c(NC(=O)COC(=O)c2cc3c4ccccc4n(C)c3s2)c(=O)n(-c2ccccc2)n1C > 76.9 µM
CCOC(=O)c1sc(=NC(=O)c2cccc(OC)c2)n(C)c1C > 76.9 µM
Cc1ccc(C(=O)C2=C(O)C(=O)N(CCCN(C)C)C23C(=O)N(C)c2ccccc23)o1 (stereo not given) > 76.9 µM
CCCn1c(=O)c(C(=O)Nc2cnccn2)c(O)c2ccccc21 > 76.9 µM
Cc1nc(-c2ccccc2)sc1C(N)=O > 76.9 µM
Cn1c2c(c(=O)n(C)c1=O)CN(CC1CCCO1)CN2 (stereo not given) > 76.9 µM
CCCc1cc(=O)n2[nH]c(Cc3ccccc3)nc2n1 > 76.9 µM
Cc1oc(-c2ccccc2Cl)nc1CSCC(=O)NC1CC1 > 76.9 µM
COCCNC(=O)c1ccccc1NC(=O)C1COc2ccccc2O1 (stereo not given) > 76.9 µM
